According to PubChem BioAssay AID686979 (National Center for Advancing Translational Sciences (NCATS), 2013):
“And” between values parts separate entries of the source, which are not always exact repeats. Identical values can stand only once. Hit rate of the full screen: of about 420,000 compounds, about 50,000 (12%) were called active. Inconclusive results, whose numbers are uncertain, are shown with a selection of clear calls. The call rests on the fitted dose curve; in most records, active means well fitted inhibition curve with a large enough effect; inconclusive means small, poorly fitted or top-dose-only effect; inactive means flat fitted curve, though single readings scatter. Where the call is inconclusive, the potency comes from a doubtful curve fit.

experiment: qHTS for Inhibitors of human tyrosyl-DNA phosphodiesterase 1 (TDP1): qHTS in cells in presence of CPT; settings: chicken DT40 Tdp1-/-;hTDP1 cells + 20 nM CPT, ATP luminescence, 48 h; activity change, negative = growth inhibition: at 46.2 µM (top of the series) unless noted; further: nearly all actives have a fitted effect of over 55% in size
Summary of the method: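 Chicken DT40 Tdp1-/- cells complemented with human TDP1, 400 cells/well, exposed to compounds plus 20 nM camptothecin for at least 48 h at 37 C; viability read as ATP content by CellTiter-Glo luminescence.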
On the % scale 0 is the no-effect control and ±100 the full control effect; potency means the concentration at half of the fitted maximal effect; tags describe the fitted curve by direction and shape.

| Structure (SMILES) | Potency | activity change, negative = growth inhibition |
| --- | --- | --- |
| Cc1ccc(CN2CCC(CNC(=O)C3CCCN(c4ncnc5c4nc4n5CCCCC4)C3)CC2)cc1 (configuration not stated) | inconclusive: 20.6 µM [inhibitor, single point] | – |
| Cc1ccc(Cn2nc(C)c(NC(=O)CSc3nc4c(c(C(F)(F)F)n3)CCc3ccccc3-4)c2C)cc1 | inconclusive: 29.1 µM [inhibitor, single point] | – |
| [O-][N+]12CCCc3cccc(c31)CCC2 | inconclusive: 35.5 µM [inhibitor, single point] | – |
| CC1CCN(S(=O)(=O)c2ccc(NC(=O)C3CCCCC3C(=O)O)cc2)CC1 (configuration not stated) | inconclusive: 16.4 µM [inhibitor, single point] | – |
| Fc1ccc(-c2nc3ccc(Br)cn3c2Cc2ccccc2C(F)(F)F)cc1 | inconclusive: 25.9 µM [inhibitor, partial curve, poor fit] | – |
| CCOC(=O)c1nc(Nc2ccccc2)c2ccccc2n1 | inconclusive: 8.91 µM [inhibitor, partial curve] | – |
| O/N=C1/CCc2nonc2/C1=N/O | inconclusive: 29.1 µM [inhibitor, partial curve, poor fit] | – |
| CC1CCc2c(nc3ncnn3c2N2CCN(c3ccccc3)CC2)C1 (configuration not stated) | inconclusive: 18.4 µM [inhibitor, single point] | – |
| CCCCNC(=S)N/N=C/c1ccc(C#N)cc1 | inconclusive: 29.1 µM [inhibitor, single point] | – |
| Cc1c(Cl)cccc1-c1ccc(CNCCCSc2nnnn2C)o1 | inconclusive: 29.1 µM [inhibitor, single point] | – |
| CCC(CC)C(=O)Nc1ccc(Cl)c(Cl)c1 | inactive | – |
| CCCCN(C)CCNC(=O)C1CCCN(S(=O)(=O)c2cccc3nsnc23)C1 (configuration not stated) | inactive | – |
| Cc1cccc(Cn2cc(/C=C/[N+](=O)[O-])c3ccccc32)c1 | active: 23.1 µM | – |
| N#CC1=C(N)NC(SCc2ccc(Br)cc2)=C(C#N)C12CCCCC2 | inconclusive: 18.4 µM [inhibitor, single point] | – |
| Cc1cc(C)c(S(=O)(=O)N2CCC(n3c(C(F)(F)F)nc4cccnc43)CC2)c(C)c1 | – | inconclusive: -7.05% [inhibitor] |
| O=C(N[C@@H]1C/C=C\C[C@H](CC(=O)N(CCO)Cc2ccccc2)C(=O)N[C@@H](Cc2ccccc2)COC1=O)OCC1c2ccccc2-c2ccccc21 | active: 16.4 µM | – |
| CCOC(=O)C1(C)CCN1C(=O)c1cc2ccccc2s1 (configuration not stated) | inconclusive: 29.1 µM [inhibitor, single point] | – |
| Cc1nc2nc(SCC(=O)N(C)Cc3ccccc3)nn2c(C)c1Cc1ccccc1Cl | inconclusive: 29.1 µM [inhibitor, single point] | – |
| O=C(CCCN1C(=O)/C(=C/c2cccc(Br)c2)SC1=S)Nc1cccnc1 | inconclusive: 29.1 µM [inhibitor, single point] | – |
| CCCCN=C1CC(C)(C)CC(=O)/C1=C(/O)CCC | inconclusive: 8.2 µM [inhibitor, partial curve, poor fit] | – |
| Cc1ccc(/C=N/N2C(=S)SC(C)(C)C2N(O)C(=O)Nc2ccc([N+](=O)[O-])cc2)cc1 (configuration not stated) | inconclusive: 29.1 µM [inhibitor, single point] | – |
| C/C(=N\OCc1ccc(C#N)cc1)c1ccccc1 | inconclusive: 6.51 µM [inhibitor, single point] | – |
| CCOC(=O)C1CCCN(C(=S)Nc2cc(C)cc(C)c2)C1 (configuration not stated) | inactive | – |

| Structure (SMILES) | Potency | activity change, negative = growth inhibition |
| --- | --- | --- |
| Cc1cn2c(=O)cc(COc3cccc(NC(=O)c4ccc(C(C)(C)C)cc4)c3)nc2s1 | active: 16.4 µM | – |
| O=C(NCc1ccccc1)C1CCN(c2nc(-c3ccccc3)nc3c2CCC3)CC1 | active: 18.4 µM | – |
| CC1(C)Cc2c(sc(NC(=O)C(=O)NCCCN3CCOCC3)c2C#N)CO1 | inactive | – |
| C=CCc1ccccc1OCCSc1nc(-c2cccs2)nc2cc(=O)[nH]n12 | inconclusive: 7.31 µM [inhibitor, partial curve] | – |
| CSc1ccc(C(=O)C2CCCN(C(=O)Cc3nonc3C)C2)cc1 (configuration not stated) | inconclusive: 9.2 µM [inhibitor, partial curve] | – |
| O=C1CC(c2cccc(Cl)c2)Cc2nc(N3CCOCC3)ncc21 (configuration not stated) | inconclusive: 18.4 µM [inhibitor, single point] | – |
| Cc1noc(C)c1NC(=O)Nc1ccc2c(c1)C(=O)N([C@@H](C)CO)C[C@@H](C)[C@H](CN(C)C(=O)Nc1cccc3ccccc13)OCCCC[C@H](C)O2 | inconclusive: 29.1 µM [inhibitor, single point] | – |
| O=C(Nc1ccc(OCc2cc(=O)n3c4c(sc3n2)CCCC4)cc1)c1cccc(F)c1 | inconclusive: 20.6 µM [inhibitor, single point] | – |
| O=C(CCn1cnc2onc(-c3ccc(F)cc3)c2c1=O)Nc1ccc(F)c(Cl)c1 | active: 13 µM | – |
| CC(C)[C@H](NC(=O)c1ccccc1)C(=O)OCc1nnc(-c2ccccc2)o1 | inconclusive: 18.4 µM [inhibitor, single point] | – |
| CCOC(=O)c1sc2nc3c(SCCC#N)cc(C(=O)c4cc(F)ccc4O)cn3c(=O)c2c1C | inconclusive: 5.8 µM [inhibitor, partial curve] | – |
| CCCn1c(N)c(C(=O)CN(C)CC(=O)Nc2c(Cl)cccc2Cl)c(=O)[nH]c1=O | active: 16.4 µM | – |
| O=C(COc1ccc(Cl)cc1)NCc1nnc2c3ccccc3c(-c3ccccc3)nn12 | inconclusive: 23.1 µM [inhibitor, single point] | – |
| CC(=NNc1ccc2ccccc2n1)c1ccccc1O | inconclusive: 29.1 µM [inhibitor, single point] | – |
| Cc1nn(-c2ccccc2)c2nc(C3CC3)cc(C(=O)Nc3ccc(F)cc3)c12 | active: 16.4 µM | – |
| CCc1nc2c(OCCC3CCCCC3)cccn2c1N(C)C(=O)c1cccs1 | active: 29.1 µM | – |
| O=C(CCNS(=O)(=O)c1ccc(Br)cc1)NCc1ccc(Cl)cc1 | inconclusive: 25.9 µM [inhibitor, single point] | – |
| Cc1cccc(NC(=O)c2ccc3nc(N4CCOCC4)sc3c2)c1C | inconclusive: 29.1 µM [inhibitor, single point] | – |
| Nc1c(Br)cc(/C=C/c2ccnc3ccccc23)cc1Br | inconclusive: 25.1 µM [inhibitor, single point] | – |
| O=C(NCC(=O)N(c1cccnc1)C(C(=O)NC1CCCC1)c1ccccc1)c1ccco1 (configuration not stated) | inactive | – |
| Cn1c(SCC(=O)NCc2ccc(F)cc2)ncc(C(=O)Nc2ccccc2)c1=O | inconclusive: 1.84 µM [inhibitor, partial curve] | – |
| CCCn1c(=O)c(C(=O)NCc2ccccc2)c(O)c2ccccc21 | inconclusive: 18.4 µM [inhibitor, single point] | – |
| COc1cccc(-c2cc(C(=O)NN3CCOCC3)c3ccccc3n2)c1 | inconclusive: 5.8 µM [inhibitor, partial curve] | – |

| Structure (SMILES) | Potency | activity change, negative = growth inhibition |
| --- | --- | --- |
| Cn1c(=O)n(Cc2ccc(Cl)cc2)c2ccccc21 | inactive | – |
| O=C(NC1=NCCS1)c1sc2ccccc2c1Cl | inactive | – |
| COC(=O)c1ccc2c(=O)n(C3CCCCC3)c(SCC#N)nc2c1 | active: 11.6 µM | – |
| Cc1ccc(NC(=O)CN(C)S(=O)(=O)c2ccc3c(c2)n(C)c(=O)c(=O)n3C)cc1F | inactive | – |
| CCCCCNCC(=O)Nc1cc(C(F)(F)F)ccc1OCCOC | inconclusive: 18.4 µM [inhibitor, single point] | – |
| Fc1ccc2[nH]c3c(NCc4ccccc4)ncnc3c2c1 | active: 5.17 µM | – |
| Nc1cc(=O)[nH]c(SCC(=O)Nc2ncc(C(F)(F)F)cc2Cl)n1 | inactive | – |
| Cc1ccc(S(=O)(=O)N2CCC(Oc3cccc(C(F)(F)F)c3)CC2)cc1 | inconclusive: 29.1 µM [inhibitor, single point] | – |
| COc1ccccc1-c1cnn2c(NCc3ccccc3)cc(C)nc12 | inconclusive: 29.1 µM [inhibitor, single point] | – |
| C#CCN1[C@@H]2CCN(C2)c2cc(Br)ccc2S1(=O)=O | inactive | – |
| COc1ccc(CCNC(=O)c2cc(C3CC3)nc3c2cnn3C(C)C)cc1OC | inconclusive: 23.1 µM [inhibitor, single point] | – |
| Cc1ccc2c(CC(=O)Nc3cccc(C(F)(F)F)c3)coc2c1 | active: 16.4 µM | – |
| Cc1cc2oc(=O)cc(CN3CCOCC3)c2c(C)c1Cl | inactive | – |
| [O-]/[N+](=C/c1ccc(F)cc1)c1ccc(Cl)cc1 | active: 16.4 µM | – |
| CC1(C)Cc2c(c(N3CCOCC3)nc3sc(C(=O)Nc4ccc(Cl)cc4)c(N)c23)CO1 | inconclusive: 4.11 µM [inhibitor, full curve] and inconclusive: 13 µM [inhibitor, partial curve] | – |
| Cc1cccc(NC(=O)CSc2nc(-c3cccc(C)c3)nc3c2Cc2c(CO)cnc(C)c2O3)c1 | inconclusive: 25.9 µM [inhibitor, single point] | – |
| CC(=O)c1cccc(NC(=O)c2cc(S(=O)(=O)N3CCCCC3)ccc2N2CCOCC2)c1 | inconclusive: 29.1 µM [inhibitor, single point] | – |
| CCCCOc1ccc(C(=O)Nc2cc(-c3ccc(C)cc3)no2)cc1 | – | inconclusive: -33.2% [inhibitor] |
| CCOC(=O)COc1ccc(/C=C(\C#N)c2nc3ccc(C)cc3[nH]2)cc1OC | inconclusive: 10.3 µM [inhibitor, partial curve, poor fit] | – |
| O=C(c1ccccc1C(=O)N(c1ccccc1)c1ccccc1)N1CCCCC1 | inconclusive: 29.1 µM [inhibitor, single point] | – |
| Cc1ccccc1Cn1c(=N)n(CC(=O)c2ccco2)c2ccccc21 | active: 23.1 µM | – |
